Measurements taken from the supplement of paper PMC3334620.
Over roughly 33,000 sequences, “E-score (-0.5 to 0.5)” has its median near -0.035; the highest 2% begin near 0.35. This is one part of the list.

What follows are sequences tested against T1, Pdr3 (UniProt P33200) (assay: PBM E-score (8-mer binding enrichment) (E-score (-0.5 to 0.5)); higher = stronger / more preferred TF binding; most listed sequences are background and not binding sites). Settings: protein concentration: 200 nM; construct: GST-full length.
T1 sequence: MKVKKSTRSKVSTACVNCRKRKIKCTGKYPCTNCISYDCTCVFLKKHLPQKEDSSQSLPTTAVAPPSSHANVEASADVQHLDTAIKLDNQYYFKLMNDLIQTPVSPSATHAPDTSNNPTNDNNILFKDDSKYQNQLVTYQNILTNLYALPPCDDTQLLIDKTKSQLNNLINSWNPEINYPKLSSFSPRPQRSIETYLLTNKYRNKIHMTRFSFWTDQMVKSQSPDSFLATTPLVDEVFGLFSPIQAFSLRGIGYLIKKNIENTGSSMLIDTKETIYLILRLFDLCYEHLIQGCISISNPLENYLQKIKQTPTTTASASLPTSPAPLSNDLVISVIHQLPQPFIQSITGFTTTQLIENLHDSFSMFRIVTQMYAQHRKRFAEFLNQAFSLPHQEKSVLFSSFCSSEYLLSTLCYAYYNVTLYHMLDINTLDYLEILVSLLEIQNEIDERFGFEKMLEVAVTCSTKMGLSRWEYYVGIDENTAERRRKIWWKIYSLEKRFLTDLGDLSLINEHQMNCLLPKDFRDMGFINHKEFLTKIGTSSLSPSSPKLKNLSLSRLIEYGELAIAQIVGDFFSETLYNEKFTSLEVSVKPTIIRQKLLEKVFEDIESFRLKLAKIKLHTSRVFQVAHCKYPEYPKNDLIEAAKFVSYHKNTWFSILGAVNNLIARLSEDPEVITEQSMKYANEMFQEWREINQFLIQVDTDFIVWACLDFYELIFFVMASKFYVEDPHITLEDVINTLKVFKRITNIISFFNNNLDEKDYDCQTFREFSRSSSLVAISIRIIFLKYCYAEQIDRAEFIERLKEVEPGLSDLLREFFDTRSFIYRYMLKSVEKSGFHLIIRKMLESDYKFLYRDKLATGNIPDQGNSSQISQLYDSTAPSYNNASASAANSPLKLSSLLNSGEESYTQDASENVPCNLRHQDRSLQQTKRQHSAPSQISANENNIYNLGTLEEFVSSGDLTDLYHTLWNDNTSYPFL
How it was run: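 The E-score, a modified Wilcoxon-Mann-Whitney statistic, was computed by the Universal PBM Analysis Suite for every ungapped eight-base word pooled with its reverse complement. Scans behind it were normalised with masliner after bound GST-tagged yeast transcription factors were detected with fluorescent anti-GST. The proteins, at about 100-200 nM, had been applied to universal all-10-mer Agilent arrays made double-stranded by primer extension.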

| Sequence | PBM E-score |
| --- | --- |
| GACCACGA | -0.107 |
| TCTATGCA | -0.315 |
| ACACTAAG | -0.229 |
| GAACATCC | 0.278 |
| CCCATACC | 0.0332 |
| AACTAGAT | 0.096 |
| GACGGCGC | 0.212 |
| AGCGCAAA | 0.0157 |
| ATAGTAAT | 0.187 |
| AGACCAGG | -0.0436 |
| AGTTACAA | 0.0783 |
| CGTCCTAC | 0.00947 |
| TCCTTACA | -0.0346 |
| GCCACGCA | -0.0605 |
| AAGTGTGA | -0.227 |
| ATCTGGAA | 0.0147 |
| CCGTACAC | 0.0553 |
| CAAGGGGG | -0.403 |
| ACTGAACT | -0.141 |
| AGGCTGCA | -0.186 |
| GACCTATA | 0.0796 |
| CAGGTTGC | -0.0469 |
| CCGGCTAG | 0.183 |
| GGCCACCC | 0.136 |
| GGGAGAAA | -0.0138 |

| Sequence | PBM E-score |
| --- | --- |
| GTGTATTA | 0.0101 |
| AGTGCACT | -0.133 |
| CACATTGG | 0.00753 |
| ATCAATCA | 0.0272 |
| CGGCTGAA | 0.133 |
| ATCTGGAG | -0.0781 |
| TAGGTTGA | -0.101 |
| CCGTGTGC | 0.183 |
| GCAAGACC | 0.0414 |
| CCTTCGGC | 0.038 |
| CGCAGCCC | 0.223 |
| GGACAGCC | 0.245 |
| GGCCGACA | 0.0905 |
| AGCGGCCG | 0.265 |
| CGGCTTCC | 0.311 |
| AACCCTCA | -0.19 |
| GCGCTAGC | -0.125 |
| TGCTGAAA | -0.0805 |
| AGCGCATC | -0.118 |
| CATCGCGG | 0.193 |
| ATGCCATG | -0.113 |
| CTGTCTCC | 0.218 |
| ACGCTCCT | -0.238 |
| TACAGGTA | -0.219 |
| AAATCACT | -0.108 |

| Sequence | PBM E-score |
| --- | --- |
| AAACCGGC | 0.283 |
| GCTTGCAC | -0.0866 |
| CCTATCAC | -0.107 |
| CGAGACGA | 0.0388 |
| GGCGCCCC | 0.125 |
| ATTAGGCA | -0.0942 |
| AGGAATAT | 0.0903 |
| CGCAGGCG | -0.0861 |
| ACGAGACC | -0.0325 |
| AGCGATAG | -0.327 |
| CCATGTTA | -0.0874 |
| CCTCGTAA | 0.0306 |
| AACTTCTA | -0.217 |
| TAATACCA | 0.131 |
| AGCGTCGG | 0.0549 |
| ACAGAGAG | -0.296 |
| CCAGTTTA | -0.227 |
| CAGGGCGG | 0.165 |
| AACAACGA | -0.0839 |
| GCGGTCAC | 0.0135 |
| AGGTCACA | -0.164 |
| AATGACAA | -0.0744 |
| TAGGCGAA | -0.236 |
| AGGACCTA | 0.139 |
| AGTCTGTC | -0.22 |

| Sequence | PBM E-score |
| --- | --- |
| ACTAGTGG | -0.00603 |
| ATAGCAAC | -0.0447 |
| AAGAGGGA | -0.239 |
| CGACGCAA | 0.0575 |
| TCGCCGCA | 0.132 |
| AGAGACGG | 0.06 |
| AGGTGTGA | -0.138 |
| TATAGCCA | 0.0158 |
| CGGCGGCA | 0.226 |
| CGGCAGTC | 0.129 |
| CCAGTTCC | 0.318 |
| AAAGATCT | -0.0765 |
| TACTTATA | -0.14 |
| CATGTCGA | 0.0523 |
| TAATTTGA | -0.102 |
| AAACCTTT | -0.129 |
| ATACGTTG | -0.168 |
| CGCATCAC | -0.0776 |
| ATCTCGCC | 0.014 |
| TCCGGCCA | 0.312 |
| ATCAATAA | -0.0512 |
| CGCTGCGC | -0.0056 |
| AAGTCGAA | -0.188 |
| CGTCAAAC | -0.156 |
| AACCGCTA | -0.14 |

| Sequence | PBM E-score |
| --- | --- |
| AACCAATT | 0.0667 |
| AAGCTAGT | -0.0875 |
| CTTTGAAA | -0.209 |
| TCAGTCCA | -0.407 |
| GCTGTCCA | 0.0841 |
| AACAGCAT | -0.0321 |
| ATAGGGCA | -0.0798 |
| CCATACCG | 0.058 |
| TATGAATA | -0.0242 |
| AGTACCTA | -0.111 |
| AGTTAACA | 0.0226 |
| GTAAACAC | 0.0559 |
| CACTTTCA | -0.203 |
| GCATGACC | -0.0274 |
| GACCGTCA | -0.127 |
| CCAGGGCA | -0.0268 |
| CCCAGGAG | -0.226 |
| ACGGGATA | 0.38 |
| AGTACTTA | -0.163 |
| ATAAGGTC | 0.139 |
| AGCCAACG | -0.141 |
| AGCGAACT | -0.187 |
| GACATATC | 0.0956 |
| CAGAACAA | 0.0215 |
| CCTCGAGC | -0.0447 |

| Sequence | PBM E-score |
| --- | --- |
| AATGACCA | 0.0227 |
| CGTGCACA | -0.15 |
| AGTTCGAC | -0.086 |
| TCGGAAAA | 0.4 |
| GCTCCGCA | 0.178 |
| ATGCATTC | 0.0343 |
| CCCTCGAA | -0.221 |
| GCAACTTA | 0.119 |
| GTGCTAAA | 0.00725 |
| ACCACTAC | 0.0513 |
| CATAGCCG | 0.231 |
| TCCCGCGA | 0.287 |
| ACTTATGC | -0.166 |
| GAGATATC | 0.115 |
| CGCCGTAG | 0.117 |
| CAAAACTC | 0.00097 |
| GGCGAACC | 0.0603 |
| GCCCGCTA | -0.201 |
| CGAATTAC | -0.0526 |
| TGATGACA | -0.0129 |
| AGGGTGCG | -0.167 |
| CGGGTCCA | 0.0381 |
| CCGCGCGG | 0.473 |
| ACAATACA | 0.0212 |
| ACCAATAC | -0.136 |

| Sequence | PBM E-score |
| --- | --- |
| TTAACAAA | 0.0347 |
| CGATACAA | 0.0404 |
| AGAGAGCA | -0.0698 |
| CACAAATA | -0.141 |
| GCGTCGCA | -0.0451 |
| AGGAGCGG | -0.152 |
| AAGGCCAC | -0.0643 |
| CCACCAGC | 0.0384 |
| GCCGGGAC | 0.316 |
| GACGCCGA | 0.132 |
| CCCCATTC | 0.0934 |
| GAAACTGC | -0.0117 |
| CGAGTTCC | 0.226 |
| TAATCATA | -0.066 |
| ATGCCACA | -0.135 |
| GGAGGTAC | -0.0123 |
| AAACTTTG | 0.0946 |
| AACGAAAC | 0.0226 |
| GGCGTCAC | -0.0552 |
| GGGCCCTA | 0.0142 |
| ACGATCAG | -0.108 |
| CTGAGCCA | -0.152 |
